According to the supplement of paper PMC11417369:
± gives the standard deviation of the averaged measurements. The list shows a part of the results.

System: PfAP2-EXP AP2 domain (GST-tagged)
Test: gcPBM binding intensity (ln(normalized median fluorescence intensity)); higher = stronger DNA binding
Outline: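 Alexa488 anti-GST antibody, scanned at 488 nm, detected GST-tagged P. falciparum DNA-binding domains that had been expressed in E. coli and incubated for 1 h on an Agilent 4 × 180k array. The array carried primer-extended double-stranded 36-bp intergenic genomic probes and negative controls. Binding intensity is the highest Masliner-normalised natural-log median intensity across replicate spots of either orientation of each probe.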

| Sequence | gcPBM binding intensity (ln) |
| --- | --- |
| TCATGTTTTACAAAAACACACAAATGAATATAAACC [CACACA_site1161] | 8.88 ± 0.46 |
| CGTATGCAAGGAACCACACACACACCCATAAATGTA [CACACA_site749] | 8.51 ± 0.45 |
| AAAAAATAGACATATACACACATATGTATTTATAAT [CACACA_site5225] | 8.38 ± 0.35 |
| TAAAAATTCAATTGCACACGCACATATTTTAATAAG [CACACA_site2014] | 8.35 ± 0.25 |
| AATATAATAATAAAAACACACACGTTGATTGTATTA [CACACA_site2381] | 8.32 ± 0.51 |
| TTTTTTTTTATAAGGTGTACGTAAAATGTGTAGGTC [XGTACX_site3585] | 9.12 ± 0.26 |
| ATTTCATATAGTGTAGTGCAATTTTAAGCATCAAGG | 8.84 ± 0.14 |
| ATGTCATTATATACATGTACGCATATCTGTTTATCC [XGTACX_site3947] | 8.92 ± 0.44 |
| CCTATAATAAATAATACACACATATTGTAAATATAT [CACACA_site7496] | 8.46 ± 0.53 |
| TTAAAAATAAAAAATACACACTCTAGTCCATGTAAC [CACACA_site3640] | 8.37 ± 0.35 |
| ACTACATAATATTTACGTACCTAAAAAATTCTTATA [XGTACX_site509] | 8.51 ± 0.33 |
| TAAGTGCTTTTCAACTGTACCTTCCATTTATTTATT [XGTACX_site8589] | 8.51 ± 0.24 |
| TCTTGACTAAATATATGTACATATATTTTAATAATA [XGTACX_site701] | 8.45 ± 0.3 |
| AAAAAAAAAAAAAATACACACGTGAATGTATTGTTT [CACACA_site4856] | 8.53 ± 0.42 |
| GTATTCAAAAGTGAAACATGCAATAATATATATATA [TGCATGCA_site617] | 9.73 ± 0.13 |
| TTCTTATTTTATATTTCACACATTTTTACTATACTT [CACACA_site5817] | 9.1 ± 0.28 |
| AGAATGAAATAATATACACACAAAGGAAAAATGTAA [CACACA_site3911] | 8.99 ± 0.38 |
| ATACGTATTTATTTCACACACGTTAAAAAAATAAAA [CACACA_site6027] | 8.38 ± 0.32 |
| AAGGAGCCTATGAACACACACATGTACCTATATTAA [CACACA_site7838] | 8.6 ± 0.42 |
| ATAAAGAAAAGGAACACACAAATATGTAAATATGTA [CACACA_site6356] | 8.72 ± 0.42 |
| TTACACATAAATACCATATAAATATAATGCATATCT [CACACA_negctrl_site1731] | 8.35 ± 0.37 |
| TAAAATATTATCTACGCACACATTAAAATAAAAAAA [CACACA_site3709] | 8.41 ± 0.39 |
| AAAACATTATTCCATACACACCATACTTTTTAATAA [CACACA_site7326] | 8.51 ± 0.3 |
| CATTTGCACACGCACACACACATAAAAAGAAAAATA [CACACA_site6297] | 8.58 ± 0.47 |
| TATATATATTTAAAAAGTACAAAAAAAAAAAATGAA [XGTACX_site374] | 8.74 ± 0.54 |
